Test results taken from the supplement of paper PMC12217912.
The list shows a part of the results. Sequences were assembled here from the parent chain. Inactive controls read about 0.05.

B1: TEV protease; numbered along this chain (parent)
chain: MGESLFKGPRDYNPISSSICHLTNESDGHTTSLYGIGFGPFIITNKHLFRRNNGTLVVQSLHGVFKVKDTTTLQQHLVDGRDMIIIRMPKDFPPFPQKLKFREPQREERICLVTTNFQTKSMSSMVSDTSCTFPSGDGIFWKHWIQTKDGQCGSPLVSTRDGFIVGIHSASNFTNTNNYFTSVPKNFMELLTNQEAQQWVSGWRLNADSVLWGGHKVFMVKPEEPFQPVKEATQL

Variants of: B1
Test: raw area under fraction-flipped curve 0-4 h after induction (AUC4h, not background-subtracted), DNA-recorder readout of cleavage of the substrate (dimensionless); higher = more cleavage of the substrate by the protease variant
Conditions: temperature: 34 °C; time window: 0-4 h after rhamnose induction
Method: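 In vivo DNA recorder in E. coli TOP10(DE3) ΔrhaA at 34 °C. Each TEVp single-site mutant (parent TEVp 0) is paired with a single-site variant of the 7-mer TEVs (canonical ENLYFQ|S). The substrate sits between flexible linkers in a Bxb1-sfGFP-TEVs-SsrA fusion, so cleavage stabilises Bxb1 and speeds flipping of a recombination array, read by NGS. The value is the raw area under the fraction-flipped curve over 0-4 h after rhamnose induction (AUC4h), with ≥20 reads per time point. It is not background-subtracted; inactive controls average about 0.047.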
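Further: Bxb1 expression induced with 0.2% (w/v) L-rhamnose at OD600 near 0.5, cultures sampled hourly, flipped fraction per protease–substrate barcode pair counted by paired-end Illumina sequencing.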

| Variant | area with substrate EALYFQS | area with substrate EFLYFQS | area with substrate EGLYFQS | area with substrate EHLYFQS | area with substrate EQLYFQS | area with substrate ERLYFQS | area with substrate ETLYFQS | area with substrate EWLYFQS | area with substrate EDLYFQS | area with substrate ELLYFQS | area with substrate EMLYFQS | area with substrate ESLYFQS | area with substrate EYLYFQS | area with substrate ECLYFQS | area with substrate EELYFQS | area with substrate EILYFQS | area with substrate EKLYFQS | area with substrate EPLYFQS | area with substrate EVLYFQS |
| --- | --- | --- | --- | --- | --- | --- | --- | --- | --- | --- | --- | --- | --- | --- | --- | --- | --- | --- | --- |
| MGESLFKGPRDYNPISSSICHLTNESDGHTTSLYGIGFGPFIITNKHLFRRNPGTLVVQSLHGVFKVKDTTTLQQHLVDGRDMIIIRMPKDFPPFPQKLKFREPQREERICLVTTNFQTKSMSSMVSDTSCTFPSGDGIFWKHWIQTKDGQCGSPLVSTRDGFIVGIHSASNFTNTNNYFTSVPKNFMELLTNQEAQQWVSGWRLNADSVLWGGHKVFMVKPEEPFQPVKEATQL [N53P] | 0.0873 | 0.057 | 0.0715 | 0.0678 | 0.0874 | 0.0763 | 0.0772 | 0.117 |  |  |  |  |  |  |  |  |  |  |  |
| MGESLFKGPRDYNPISSSICHLTNESDGHTTSLYGIGFGPFIITNKHLFRRNNGRLVVQSLHGVFKVKDTTTLQQHLVDGRDMIIIRMPKDFPPFPQKLKFREPQREERICLVTTNFQTKSMSSMVSDTSCTFPSGDGIFWKHWIQTKDGQCGSPLVSTRDGFIVGIHSASNFTNTNNYFTSVPKNFMELLTNQEAQQWVSGWRLNADSVLWGGHKVFMVKPEEPFQPVKEATQL [T55R] | 0.142 |  | 0.0786 | 0.0835 |  |  | 0.11 | 0.0964 | 0.0867 | 0.101 | 0.098 | 0.104 | 0.106 |  |  |  |  |  |  |
| MGESLFKGPRDYNPISSSICHLTNESDGHTTSLYGIGFGPFIITNKHLFRRNNGTNVVQSLHGVFKVKDTTTLQQHLVDGRDMIIIRMPKDFPPFPQKLKFREPQREERICLVTTNFQTKSMSSMVSDTSCTFPSGDGIFWKHWIQTKDGQCGSPLVSTRDGFIVGIHSASNFTNTNNYFTSVPKNFMELLTNQEAQQWVSGWRLNADSVLWGGHKVFMVKPEEPFQPVKEATQL [L56N] | 0.0375 | 0.0837 |  | 0.041 | 0.0494 |  |  |  | 0.0408 |  | 0.0474 |  |  | 0.0473 | 0.0393 | 0.0432 | 0.027 | 0.043 | 0.0464 |
| MGESLFKGPRDYNPISSSICHLTNESDGHTTSLYGIGFGPFIITNKHLFRRNNGTLHVQSLHGVFKVKDTTTLQQHLVDGRDMIIIRMPKDFPPFPQKLKFREPQREERICLVTTNFQTKSMSSMVSDTSCTFPSGDGIFWKHWIQTKDGQCGSPLVSTRDGFIVGIHSASNFTNTNNYFTSVPKNFMELLTNQEAQQWVSGWRLNADSVLWGGHKVFMVKPEEPFQPVKEATQL [V57H] | 0.0943 |  |  | 0.113 |  | 0.11 |  |  | 0.142 |  | 0.117 | 0.097 |  |  |  |  | 0.129 | 0.138 | 0.113 |
| MGESLFKGPRDYNPISSSICHLTNESDGHTTSLYGIGFGPFIITNKHLFRRNNGTLPVQSLHGVFKVKDTTTLQQHLVDGRDMIIIRMPKDFPPFPQKLKFREPQREERICLVTTNFQTKSMSSMVSDTSCTFPSGDGIFWKHWIQTKDGQCGSPLVSTRDGFIVGIHSASNFTNTNNYFTSVPKNFMELLTNQEAQQWVSGWRLNADSVLWGGHKVFMVKPEEPFQPVKEATQL [V57P] | 0.0466 |  | 0.0367 | 0.0468 | 0.0462 | 0.0506 | 0.105 |  | 0.0407 | 0.0452 | 0.0461 | 0.0482 | 0.0527 |  |  | 0.0419 |  |  | 0.0417 |
| MGESLFKGPRDYNPISSSICHLTNESDGHTTSLYGIGFGPFIITNKHLFRRNNGTLVCQSLHGVFKVKDTTTLQQHLVDGRDMIIIRMPKDFPPFPQKLKFREPQREERICLVTTNFQTKSMSSMVSDTSCTFPSGDGIFWKHWIQTKDGQCGSPLVSTRDGFIVGIHSASNFTNTNNYFTSVPKNFMELLTNQEAQQWVSGWRLNADSVLWGGHKVFMVKPEEPFQPVKEATQL [V58C] | 0.107 |  |  | 0.0931 |  |  |  |  | 0.132 | 0.0592 |  | 0.124 | 0.0554 | 0.0531 |  | 0.0787 | 0.114 |  | 0.0934 |
| MGESLFKGPRDYNPISSSICHLTNESDGHTTSLYGIGFGPFIITNKHLFRRNNGTLVIQSLHGVFKVKDTTTLQQHLVDGRDMIIIRMPKDFPPFPQKLKFREPQREERICLVTTNFQTKSMSSMVSDTSCTFPSGDGIFWKHWIQTKDGQCGSPLVSTRDGFIVGIHSASNFTNTNNYFTSVPKNFMELLTNQEAQQWVSGWRLNADSVLWGGHKVFMVKPEEPFQPVKEATQL [V58I] | 0.146 | 0.0984 | 0.093 |  |  |  |  | 0.0931 |  |  |  |  |  |  |  |  | 0.108 |  |  |
| MGESLFKGPRDYNPISSSICHLTNESDGHTTSLYGIGFGPFIITNKHLFRRNNGTLVWQSLHGVFKVKDTTTLQQHLVDGRDMIIIRMPKDFPPFPQKLKFREPQREERICLVTTNFQTKSMSSMVSDTSCTFPSGDGIFWKHWIQTKDGQCGSPLVSTRDGFIVGIHSASNFTNTNNYFTSVPKNFMELLTNQEAQQWVSGWRLNADSVLWGGHKVFMVKPEEPFQPVKEATQL [V58W] | 0.0338 |  |  |  | 0.0645 |  |  |  |  |  |  | 0.0496 |  | 0.0543 |  | 0.0647 | 0.0561 |  | 0.0841 |
| MGESLFKGPRDYNPISSSICHLTNESDGHTTSLYGIGFGPFIITNKHLFRRNNGTLVYQSLHGVFKVKDTTTLQQHLVDGRDMIIIRMPKDFPPFPQKLKFREPQREERICLVTTNFQTKSMSSMVSDTSCTFPSGDGIFWKHWIQTKDGQCGSPLVSTRDGFIVGIHSASNFTNTNNYFTSVPKNFMELLTNQEAQQWVSGWRLNADSVLWGGHKVFMVKPEEPFQPVKEATQL [V58Y] | 0.105 |  | 0.0669 |  | 0.0759 |  | 0.11 |  | 0.0565 |  | 0.0685 | 0.0696 | 0.0721 | 0.0663 |  | 0.0571 |  |  | 0.0605 |
| MGESLFKGPRDYNPISSSICHLTNESDGHTTSLYGIGFGPFIITNKHLFRRNNGTLVVCSLHGVFKVKDTTTLQQHLVDGRDMIIIRMPKDFPPFPQKLKFREPQREERICLVTTNFQTKSMSSMVSDTSCTFPSGDGIFWKHWIQTKDGQCGSPLVSTRDGFIVGIHSASNFTNTNNYFTSVPKNFMELLTNQEAQQWVSGWRLNADSVLWGGHKVFMVKPEEPFQPVKEATQL [Q59C] | 0.133 |  | 0.0996 | 0.0857 | 0.122 |  |  | 0.0952 | 0.161 |  | 0.111 | 0.0941 |  | 0.117 |  | 0.13 |  |  | 0.134 |
